Data on 110 sequences can be found in the supplement of paper PMC4466236.

Over roughly 33,000 sequences, “E-score (dimensionless, -0.5 to 0.5)” has its median near -0.058; the highest 2% begin near 0.35. Some of the results follow.

In the experiment the test system is MvaT. Kind of experiment: PBM 8-mer E-score (mean of HK and ME arrays) (E-score (dimensionless, -0.5 to 0.5)); higher = stronger relative binding preference; most listed sequences are background and not binding sites. Put shortly:
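Reported values are rank-based E-scores, taken as the mean of two universal arrays and parsed with a custom script. Each 8-mer score falls between -0.5 and 0.5. The arrays, ME and HK, were double-stranded 60-mers with a constant 25-mer primer region and a variable 35-mer region covering all 8-mers. They were probed, by an earlier protocol, with full-length P. aeruginosa MvaT carrying an N-terminal glutathione S-transferase fusion.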
Regarding CGCCCCAG, the “PBM 8-mer E-score” value is -0.332.
In the case of CCTTGATC, the “PBM 8-mer E-score” value was -0.174.
The same measure for GAGCATGC: -0.235; for AGCGGCGG: -0.201; for AGCATATA: 0.383.
Next, CACAATGG: -0.181; CATCATTA: 0.128.
Regarding AGATACAA, the “PBM 8-mer E-score” value came to 0.144.
GGGTCAGA: the “PBM 8-mer E-score” value was -0.206.
Consider CTCTACAA, for which the “PBM 8-mer E-score” value was 0.0497.
As to AACCGCAC, the “PBM 8-mer E-score” value is 0.0379.
For CCAACTGC, the “PBM 8-mer E-score” value was -0.0852.
Next, ACAGCGGA: 0.107; AAGCGGGA: -0.172.
Regarding CACCGAGA, the “PBM 8-mer E-score” value was -0.183.
Next, GGTGCTAC: -0.243; CCGGATTA: 0.132.
In the case of AGCGGACC, the “PBM 8-mer E-score” value is -0.153.
Turning to GATTAGAC, the “PBM 8-mer E-score” value was 0.0487.
For the sequence GCACATGC, the “PBM 8-mer E-score” value is -0.0668.
The same measure for GAGTAAGC: 0.0293; for ATACTCAC: 0.0719.
Next, CGTACATC: -0.023.
As for ATGAGGGG, the “PBM 8-mer E-score” value was -0.304.
Next, GGCGTCAA: -0.0984; ACCCGCAT: -0.0917.
Turning to ATTTTGTG, the “PBM 8-mer E-score” value stood at 0.153.
As for CCACAGCG, the “PBM 8-mer E-score” value was -0.201.
Turning to GCCCGCCA, the “PBM 8-mer E-score” value was -0.208.
Take CAGCTTAG: the “PBM 8-mer E-score” value is -0.203.
With ATTTGCAC, the “PBM 8-mer E-score” value stood at 0.144.
For CTGTCGCA, the “PBM 8-mer E-score” value was -0.0688.
For ATAACGGC, the “PBM 8-mer E-score” value is 0.262.
As for ATTGCTTA, the “PBM 8-mer E-score” value was 0.224.
Next, ACCAGAAT: 0.135; ACACATCG: -0.0363.
In the case of CATAAACG, the “PBM 8-mer E-score” value came to 0.058.
In the case of GATTGAAC, the “PBM 8-mer E-score” value turned out to be 0.0162.
In the case of ACGATATC, the “PBM 8-mer E-score” value was found to be 0.00546.
Next, CCCTTCCA: -0.295; AACCCCGC: -0.223.
Regarding AATGCTCG, the “PBM 8-mer E-score” value was -0.0785.
Regarding CAAAAACA, the “PBM 8-mer E-score” value stood at 0.133.
AATTGTTA: the “PBM 8-mer E-score” value was determined as 0.377.
For CAATAAAC, the “PBM 8-mer E-score” value amounted to 0.254.
The same measure for ACCCAACT: -0.0289.
ATTGGTAC: the “PBM 8-mer E-score” value stood at 0.139.
The same measure for ACCGATCA: 0.0257; for ACTTTGCA: 0.19; for TACTCAAA: 0.0505.
The same measure for CCGTGTTC: -0.159; for CCAGCCTA: -0.217.
Consider AACGAATC, for which the “PBM 8-mer E-score” value is -0.111.
Regarding TACATGCA, the “PBM 8-mer E-score” value stood at 0.198.
As for TGCGGAAA, the “PBM 8-mer E-score” value is 0.107.
As for CACTAGAG, the “PBM 8-mer E-score” value was -0.0838.
As to AGTCGCGG, the “PBM 8-mer E-score” value is -0.0679.
As to AACAGCGG, the “PBM 8-mer E-score” value turned out to be 0.0925.
As for TCTCGAAA, the “PBM 8-mer E-score” value was -0.106.
The same measure for CGGGCTAG: -0.148; for GGTGGAAC: -0.14.
As to ACGTTACA, the “PBM 8-mer E-score” value was 0.136.
The same measure for AAGTTAAT: 0.385.
Next, AAATTGTC: 0.22.
In the case of AAGTCCCG, the “PBM 8-mer E-score” value is -0.043.
Consider ACGAGAAA, for which the “PBM 8-mer E-score” value was determined as 0.0793.
On to AGCTTTGC, for which the “PBM 8-mer E-score” value was -0.194.
GAGCCTCC: the “PBM 8-mer E-score” value is -0.31.
For the sequence TAGATGCA, the “PBM 8-mer E-score” value amounted to 0.144.
The same measure for ACTGTTCC: 0.0213; for ACATATCC: 0.16.
On to CACTTGCG, for which the “PBM 8-mer E-score” value was -0.195.
On to ACAAGCAG, for which the “PBM 8-mer E-score” value was 0.0229.
In the case of CAGTGGAG, the “PBM 8-mer E-score” value is -0.211.
Turning to CGGCTTCA, the “PBM 8-mer E-score” value is -0.245.
As for AGGCGTAG, the “PBM 8-mer E-score” value was -0.28.
In the case of CGCTCGGC, the “PBM 8-mer E-score” value was -0.275.
As for CCCGACCA, the “PBM 8-mer E-score” value was -0.23.
The same measure for ATGTGCGC: 0.00817.
Next, GTCCGCAC: -0.0655; AATAGAAA: 0.29.
On to CACAAAGC, for which the “PBM 8-mer E-score” value was -0.108.
The same measure for ACGGACGT: -0.231.
Regarding CAATTGCA, the “PBM 8-mer E-score” value came to 0.112.
Take GATGAGCA: the “PBM 8-mer E-score” value is -0.153.
The same measure for TCTGTCCA: -0.221; for AGTCCCAT: -0.135.
On to TCAGGGGA, for which the “PBM 8-mer E-score” value is -0.118.
As to AAATCTCG, the “PBM 8-mer E-score” value stood at 0.0799.
The same measure for AGAGTTTC: -0.0443.
For GAACCCTA, the “PBM 8-mer E-score” value was -0.122.
Take CAGGAGTA: the “PBM 8-mer E-score” value was -0.0651.
For CGGATTTC, the “PBM 8-mer E-score” value was -0.0928.
As to CCCCGCAA, the “PBM 8-mer E-score” value was -0.159.
With CCACCTTC, the “PBM 8-mer E-score” value was -0.11.
The same measure for CAGTGAGG: -0.304; for GGTTCGAA: -0.0165; for CCTCTCAA: -0.209.
Take AGATGATA: the “PBM 8-mer E-score” value is 0.14.
For the sequence AACCTAAA, the “PBM 8-mer E-score” value stood at 0.135.
Consider CATTGCCG, for which the “PBM 8-mer E-score” value is -0.0568.
As to AGTAGACA, the “PBM 8-mer E-score” value was -0.00875.
For the sequence CCCGTCAA, the “PBM 8-mer E-score” value is -0.031.
Regarding CACACTTC, the “PBM 8-mer E-score” value came to 0.227.
The same measure for AGGTACGA: -0.137; for GAAGCCAC: -0.132.
In the case of AAACAGCT, the “PBM 8-mer E-score” value was determined as 0.123.
In the case of GAAGCAGA, the “PBM 8-mer E-score” value was -0.113.
For GATGAATA, the “PBM 8-mer E-score” value was determined as 0.248.
The same measure for AGTGGGTG: 0.00832.
